Holding throughout (experiment): protein-binding microarray (PBM)
Holding throughout (conditions): PBM: ~300 nM protein, 6 mM HEPES pH 7.8, 80 mM KCl, 0.5 mM EDTA, 0.5 mM EGTA, 6% glycerol, 35 ng/ul poly-dIdC, 1% milk, 1 h, room temperature; Ap Aiptasia and Nv Nematostella (sea anemones) / Co Capsaspora / Aq Amphimedon (sponge) / Dm Drosophila / Hu human; RHD is the Rel homology domain; high values mean tight binding; most listed sequences are background and not binding sites; double strand, one strand shown

The target in one assay is T1, GST-Ap-NF-kB RHD (UniProt A0A913YAJ5).
T1 sequence: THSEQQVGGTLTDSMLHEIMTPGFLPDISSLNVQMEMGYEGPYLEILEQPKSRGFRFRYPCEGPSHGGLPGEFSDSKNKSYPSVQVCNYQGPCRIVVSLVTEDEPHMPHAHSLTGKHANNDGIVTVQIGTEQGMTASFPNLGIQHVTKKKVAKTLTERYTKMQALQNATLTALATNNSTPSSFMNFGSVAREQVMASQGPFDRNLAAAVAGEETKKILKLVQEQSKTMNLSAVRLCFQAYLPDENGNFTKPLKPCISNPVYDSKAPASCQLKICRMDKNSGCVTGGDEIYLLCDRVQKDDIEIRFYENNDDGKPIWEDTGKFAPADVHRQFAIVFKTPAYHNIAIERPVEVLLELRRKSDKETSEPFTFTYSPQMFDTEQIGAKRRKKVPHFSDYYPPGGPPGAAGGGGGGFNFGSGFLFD

Assay [1] concerns the target T2, GST-Nv-NF-kB (Cys allele) (UniProt E5G601).
T2 sequence: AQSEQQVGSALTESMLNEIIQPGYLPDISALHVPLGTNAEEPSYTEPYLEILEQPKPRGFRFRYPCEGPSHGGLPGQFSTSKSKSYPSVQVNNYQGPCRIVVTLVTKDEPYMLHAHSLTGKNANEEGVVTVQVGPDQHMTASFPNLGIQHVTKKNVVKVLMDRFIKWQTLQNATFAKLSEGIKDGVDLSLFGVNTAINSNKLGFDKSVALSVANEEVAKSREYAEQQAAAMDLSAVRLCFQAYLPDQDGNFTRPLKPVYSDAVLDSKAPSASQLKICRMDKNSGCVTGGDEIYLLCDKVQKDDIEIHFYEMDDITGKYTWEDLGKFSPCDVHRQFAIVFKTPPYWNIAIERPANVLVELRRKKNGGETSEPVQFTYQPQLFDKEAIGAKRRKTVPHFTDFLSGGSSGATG

The target of a further assay is T3, GST-Co-NF-kB (UniProt F1ARL5).
T3 sequence: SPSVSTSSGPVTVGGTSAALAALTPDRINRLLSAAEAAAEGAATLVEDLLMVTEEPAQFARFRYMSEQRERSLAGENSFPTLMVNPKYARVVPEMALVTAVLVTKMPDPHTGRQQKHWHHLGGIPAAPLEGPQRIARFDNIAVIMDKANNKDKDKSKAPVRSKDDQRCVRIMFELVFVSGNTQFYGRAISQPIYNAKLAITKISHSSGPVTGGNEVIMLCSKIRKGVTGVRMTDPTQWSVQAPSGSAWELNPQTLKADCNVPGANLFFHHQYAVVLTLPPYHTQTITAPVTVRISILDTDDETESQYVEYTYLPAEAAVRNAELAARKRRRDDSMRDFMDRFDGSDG

The next assay concerns the target T4, GST-Dm-Relish (UniProt Q94527).
T4 sequence: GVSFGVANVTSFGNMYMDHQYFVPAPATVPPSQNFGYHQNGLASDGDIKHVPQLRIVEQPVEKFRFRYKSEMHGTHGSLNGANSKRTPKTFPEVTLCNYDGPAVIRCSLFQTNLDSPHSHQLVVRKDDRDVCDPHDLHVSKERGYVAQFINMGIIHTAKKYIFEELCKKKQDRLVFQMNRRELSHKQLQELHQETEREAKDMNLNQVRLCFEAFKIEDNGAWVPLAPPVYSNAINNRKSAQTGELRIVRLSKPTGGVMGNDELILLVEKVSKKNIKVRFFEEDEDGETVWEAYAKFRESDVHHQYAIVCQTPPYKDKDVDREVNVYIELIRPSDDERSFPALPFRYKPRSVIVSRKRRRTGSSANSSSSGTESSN

Another assay deals with T5, GST-Aq-NF-kB (UniProt A9Y5G7).
T5 sequence: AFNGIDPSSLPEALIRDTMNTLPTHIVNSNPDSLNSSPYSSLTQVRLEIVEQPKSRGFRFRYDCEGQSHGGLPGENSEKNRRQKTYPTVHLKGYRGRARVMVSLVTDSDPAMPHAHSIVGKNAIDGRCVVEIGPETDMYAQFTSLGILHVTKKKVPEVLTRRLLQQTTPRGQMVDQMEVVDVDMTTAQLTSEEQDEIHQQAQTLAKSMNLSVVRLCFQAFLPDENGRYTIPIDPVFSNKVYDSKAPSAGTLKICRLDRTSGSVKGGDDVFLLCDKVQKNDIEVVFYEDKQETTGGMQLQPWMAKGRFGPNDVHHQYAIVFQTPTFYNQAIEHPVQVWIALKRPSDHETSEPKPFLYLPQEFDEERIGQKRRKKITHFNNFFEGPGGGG

The list shows a part of the results, in another mix than the full data. The list includes weakly bound sequences.

In the case of “CCGATTAACATCACTACGTACCGTGATGTTAATCGGGTCTTGATTCGCTTGACGCTGCTG”, the binding signal with GST-Ap-NF-kB RHD was -0.065 z-score; in assay [1] it was -0.00122 z-score; with GST-Co-NF-kB, -0.215 z-score; in the assay with GST-Dm-Relish it was 0.328 z-score; in the assay with GST-Aq-NF-kB, -0.213 z-score.

For the sequence “CCGATTAACATCAAGCGAAAGAATGATGTTAATCGGGTCTTGATTCGCTTGACGCTGCTG”, the binding signal with GST-Ap-NF-kB RHD was -0.112 z-score; in assay [1] it was 0.526 z-score; with GST-Co-NF-kB, -0.607 z-score; with GST-Dm-Relish, -0.123 z-score; in the assay with GST-Aq-NF-kB, -0.123 z-score.

For the sequence “CCGATTAACATCACGACCAACCGTGATGTTAATCGGGTCTTGATTCGCTTGACGCTGCTG”, the binding signal with GST-Ap-NF-kB RHD was -0.396 z-score; in assay [1], 0.324 z-score; with GST-Co-NF-kB, -0.436 z-score; with GST-Dm-Relish it was 0.0455 z-score; with GST-Aq-NF-kB, -0.346 z-score.

“CCGATTAACATCAGGAATATTTATGATGTTAATCGGGTCTTGATTCGCTTGACGCTGCTG”: the binding signal was 0.166 z-score with GST-Ap-NF-kB RHD; -0.683 z-score in assay [1]; 0.11 z-score with GST-Co-NF-kB; 0.294 z-score with GST-Dm-Relish; 0.306 z-score in the assay with GST-Aq-NF-kB.

Take “CCGATTAACATCAACATGCAGATTGATGTTAATCGGGTCTTGATTCGCTTGACGCTGCTG”: the binding signal with GST-Ap-NF-kB RHD was -0.699 z-score; in assay [1] it was 0.452 z-score; in the assay with GST-Co-NF-kB, 0.0298 z-score; with GST-Dm-Relish, -0.605 z-score; in the assay with GST-Aq-NF-kB, -0.519 z-score.

As to “CCGATTAACATCAGGATCCAAGGTGATGTTAATCGGGTCTTGATTCGCTTGACGCTGCTG”, the binding signal is 0.315 z-score in the assay with GST-Ap-NF-kB RHD; -0.441 z-score in assay [1]; 0.185 z-score in the assay with GST-Co-NF-kB; -0.0594 z-score in the assay with GST-Dm-Relish; 0.374 z-score with GST-Aq-NF-kB.

“CCGATTAACATCAACAGACGTGGTGATGTTAATCGGGTCTTGATTCGCTTGACGCTGCTG”: the binding signal with GST-Ap-NF-kB RHD is -0.542 z-score; in assay [1] it was -0.181 z-score; in the assay with GST-Co-NF-kB it was -0.277 z-score; with GST-Dm-Relish it was 0.0587 z-score; in the assay with GST-Aq-NF-kB, -0.35 z-score.

Take “CCGATTAACATCAATTGACGATTTGATGTTAATCGGGTCTTGATTCGCTTGACGCTGCTG”: the binding signal with GST-Ap-NF-kB RHD is -0.685 z-score; in assay [1], -0.365 z-score; with GST-Co-NF-kB it was -0.718 z-score; with GST-Dm-Relish, -0.278 z-score; with GST-Aq-NF-kB, -0.487 z-score.

As for “CCGATTAACATCAGGCTTTTCCATGATGTTAATCGGGTCTTGATTCGCTTGACGCTGCTG”, the binding signal was -0.187 z-score with GST-Ap-NF-kB RHD; 0.455 z-score in assay [1]; 0.00392 z-score with GST-Co-NF-kB; 0.0236 z-score with GST-Dm-Relish; 0.65 z-score with GST-Aq-NF-kB.

Consider “CCGATTAACATCATCGGTGCCGTTGATGTTAATCGGGTCTTGATTCGCTTGACGCTGCTG”, for which the binding signal with GST-Ap-NF-kB RHD is -0.202 z-score; in assay [1], 0.392 z-score; with GST-Co-NF-kB it was -0.811 z-score; in the assay with GST-Dm-Relish, -0.455 z-score; in the assay with GST-Aq-NF-kB, -0.0735 z-score.

As to “CCGATTAACATCACGAACGGTAGTGATGTTAATCGGGTCTTGATTCGCTTGACGCTGCTG”, the binding signal with GST-Ap-NF-kB RHD is 0.408 z-score; in assay [1], 0.258 z-score; with GST-Co-NF-kB, 0.188 z-score; with GST-Dm-Relish, -0.109 z-score; in the assay with GST-Aq-NF-kB, 0.0422 z-score.

For the sequence “CCGATTAACATCAGACACCAACCTGATGTTAATCGGGTCTTGATTCGCTTGACGCTGCTG”, the binding signal is -0.284 z-score in the assay with GST-Ap-NF-kB RHD; 0.326 z-score in assay [1]; -0.135 z-score with GST-Co-NF-kB; -0.869 z-score with GST-Dm-Relish; -0.427 z-score in the assay with GST-Aq-NF-kB.

Take “CCGATTAACATCAGAAGTAGGGTTGATGTTAATCGGGTCTTGATTCGCTTGACGCTGCTG”: the binding signal in the assay with GST-Ap-NF-kB RHD is 0.418 z-score; in assay [1], 0.373 z-score; with GST-Co-NF-kB, 0.258 z-score; in the assay with GST-Dm-Relish it was -0.178 z-score; with GST-Aq-NF-kB it was -0.0133 z-score.

“CCGATTAACATCAGTCATGCAGGTGATGTTAATCGGGTCTTGATTCGCTTGACGCTGCTG”: the binding signal with GST-Ap-NF-kB RHD is -0.0472 z-score; in assay [1], -0.0493 z-score; in the assay with GST-Co-NF-kB, -0.0231 z-score; with GST-Dm-Relish, 0.259 z-score; with GST-Aq-NF-kB, 0.143 z-score.
